Experimental data: PubChem BioAssay (Tox21)
Where “and” joins values, the source holds several entries; their conditions need not be identical. Equal entries are not always repeated. The shares of active, inactive and inconclusive entries below differ from those in the screen. Potencies beside an inconclusive call are fits to weak or partial responses and may not hold up. Calls of active or inactive are those of the source. Calls come from the whole dose curve; as a rule, active = well fitted curve in the direction sought with a large enough effect in the repeat runs; inconclusive = weak or mixed curves; inactive = no such curve, though single readings can be large; an effect the other way counts as inactive or inconclusive.

Tests used:
[1] = qHTS RealTime-Glo MT Cell Viability Assay in HepG2 cells - 16 hour (AID 1224885)
Summary of the method: (§1)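 Cell number in HepG2 cultures estimated from NanoLuc luminescence generated by metabolic reduction of a prosubstrate by living cells. The homogeneous, nonlytic format allowed repeated reads at 0, 8, 16, 24, 32 and 40 h of compound exposure.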

[2] = qHTS RealTime-Glo MT Cell Viability Assay in HEK293 cells - 24 hour (AID 1224886)
Summary of the method: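 Homogeneous bioluminescent viability format in HEK293 cells (600 cells/well). Following 5 h at 37 C/5% CO2, 23 nL compound was pintooled; the signal was measured repeatedly during 40 h incubation.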

[3] = qHTS RealTime-Glo MT Cell Viability Assay in HEK293 cells - 8 hour (AID 1224887)
Summary of the method: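 Nonlytic bioluminescent viability monitoring. HEK293 at 600 cells/well with reagent; 5 h settle; compound transfer by pintool; plates held at 37 C and read at set time points.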

[4] = qHTS RealTime-Glo MT Cell Viability Assay in HepG2 cells - 0 hour (AID 1224889)
Summary of the method: as §1
Note: nearly all actives have a fitted effect of over 50% in size.
Potency is the fitted concentration of half-maximal effect; tags give direction and shape of the fitted curve.

| SMILES | Potency [1] | Potency [2] | Potency [3] | Potency [4] |
| --- | --- | --- | --- | --- |
| O=c1c(-c2ccc(O)cc2)coc2cc(O)cc(O)c12 | inactive | inconclusive: 21.5 µM [cytotoxic, partial curve] and active: 24.5 µM and inconclusive: 12 µM [cytotoxic, full curve] | inconclusive: 21.5 µM [cytotoxic, partial curve] and inconclusive: 19.5 µM [cytotoxic, partial curve] and inconclusive: 12 µM [cytotoxic, full curve] |  |
| C[C@]12CC[C@@H]3c4ccc(O)cc4C[C@@H](CCCCCCCCCS(=O)CCCC(F)(F)C(F)(F)F)[C@H]3[C@@H]1CC[C@@H]2O (some centres not stated) | inconclusive: 12.9 µM [cytotoxic, partial curve, poor fit] and inconclusive: 19 µM [cytotoxic, partial curve] | inconclusive: 5.75 µM [cytotoxic, full curve] and inconclusive: 9.52 µM [cytotoxic, partial curve] | inconclusive: 8.12 µM [cytotoxic, full curve] and inconclusive: 13.4 µM [cytotoxic, partial curve] |  |
| NCc1ccc(S(N)(=O)=O)cc1 | inactive |  |  |  |
| Cn1cnc2ncnc(N)c21 | inactive |  |  |  |
| CNS(=O)(=O)c1cc(C(=O)N2CCC(CCN3C4CCC3CC(n3c(C)nc5ccccc53)C4)(c3cccc(F)c3)CC2)c(Cl)cc1F (configuration not stated) | inconclusive: 19.5 µM [cytotoxic, partial curve] | active: 4.36 µM | active: 3.89 µM | inconclusive: 1.55 µM [cytotoxic, full curve] |
